Results published in PubChem BioAssay AID1508623 (National Center for Advancing Translational Sciences (NCATS), 2021).
About 450 (0.94%) of roughly 48,000 compounds were called active. About 19% were inconclusive and are not listed. The call rests on the fitted dose curve; in most records, active means well fitted inhibition curve with a large enough effect; inconclusive means small, poorly fitted or top-dose-only effect; inactive means no such curve, though single readings can be large or run the other way. This is one part of the list.

Assay: Primary qHTS for Identification of Small Molecule Inhibitors of Huntingtin Promoter Activity; further: nearly all actives have a fitted effect of over 50% in size
Conditions: HEK293 HTT promoter firefly luciferase reporter (activity 0% = vehicle and -100% = no light), 24 h; series mostly up to 57.5 µM; activity change, negative = inhibition: at the top concentration
Outline: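 HEK293 Fluc reporter, 2,500 cells/well, 24 h pre-culture; cpds up to 57.5 uM final, 24 h 37 degrees C; Dual-Glo, 10 min RT; normalized vehicle = 0%, zero RLU = -100%.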

| Compound | activity change, negative = inhibition |
| --- | --- |
| CC(=O)c1ccc(NC(=O)CCCc2nc(-c3cccc(C)c3)no2)cc1 | inactive: -9.98% |
| CC(C)Sc1ncc(Cl)c(C(=O)Nc2nnc(C(C)C)s2)n1 | inactive: -3.92% |
| CN(C(=O)C(=O)Nc1ccc2nc3n(c(=O)c2c1)CCCCC3)c1cccc(C(F)(F)F)c1 | inactive: -9.29% |
| CCc1ccc(CNC(=O)c2cc(-c3ccc(Br)s3)nc3ccccc23)cc1 | inactive: -2.39% |
| COc1cccc(-c2ccc3c(N)c(C(=O)NCc4ccc(Cl)cc4)sc3n2)c1 | inactive: -25.1% |
| Cc1cccc(N2CCN(C3(c4ccccc4)C(=O)c4ccccc4C3=O)CC2)c1C | inactive: 5.46% |
| Cc1ccc(S(=O)(=O)N2CCOCC2)cc1C(=O)Nc1ccccc1C(=O)O | inactive: -1.2% |
| O=S(=O)(Nc1ccc2nc(-c3cccc(Cl)c3)oc2c1)c1ccccc1 | inactive: 13.8% |
| Cc1ccc2onc(CC(=O)N(C)c3ccccc3)c2c1 | inactive: -8.68% |
| COc1ccccc1CNC(=O)c1ccc2nc(-c3ccccc3)c(-c3ccccc3)nc2c1 | inactive: -11.3% |
| CCOc1ccc(CNC(=O)c2ccc(NC(=O)N3CCCCc4ccccc43)cc2)cc1OC | inactive: -6.37% |
| CCn1cc(C(=O)NCc2ccc(C)cc2)c(=O)c2cc(S(=O)(=O)N3CCCCCC3)ccc21 | inactive: -6.04% |
| Cc1nn(C)c2c1c(C(F)(F)F)cc(=O)n2Cc1cccc(Br)c1 | inactive: 0% |
| CC(C)CNc1nc(Oc2ccc(OCC(N)=O)nn2)nc(N2CCOCC2)n1 | inactive: -6.99% |
| C/C=C/C=N/NC(=O)c1ccncc1 | inactive: 6.72% |
| CCOc1ccc(-n2c(-c3ccccc3)c(C)n3c4c(=O)n(C)c(=O)n(C)c4nc23)cc1 | inactive: 13.9% |
| CCCNC(=O)C1CCN(c2ncnc3c2nc2n3CCCCC2)CC1 | inactive: -4.47% |
| CCCC(=O)NCC(c1ccc2c(c1)OCO2)N1CCN(c2ccccc2)CC1 (stereo not drawn) | inactive: -6.19% |
| CCCCCOc1ccc(/C=C/C(=O)Nc2sc(C(C)=O)c(C)c2C(=O)OCC)cc1OC | inactive: 5.41% |
| CCc1ccc(-n2c(=O)c3sc4ccccc4c3n(Cc3cccc(F)c3)c2=O)cc1 | inactive: -18.6% |
| Cc1oc(C)c2c(=O)cc(-c3ccc4c(c3)OCO4)cc(OC(=O)c3ccccc3Cl)c12 | inactive: -16.8% |
| C=C1CCC2[C@](C)(CO)C(O)CC[C@]2(C)C1CC=C1C(=O)OCC1O (stereo partly drawn) | inactive: 9.8% [at 116 µM] |
| CC(=O)NO | inactive: 5.8% |
| CCN(CC)C(=O)c1sc(NC(=O)C(C)Sc2nc(-c3ccccc3)cc(C(F)(F)F)n2)c(C(=O)OC)c1C (stereo not drawn) | inactive: -21.2% |
| COc1ccc(C2=CC(c3ccccc3F)n3ncc(C(=O)Nc4ccc(C)cc4)c3N2)cc1 (stereo not drawn) | inactive: -0.0715% |

| Compound | activity change, negative = inhibition |
| --- | --- |
| COC(=O)c1ccccc1NC(=O)CCC(=O)N1CCOc2ccccc21 | inactive: -22.4% |
| COc1cc(Nc2ncc(F)c(Nc3ccc4c(n3)NC(=O)C(C)(C)O4)n2)cc(OC)c1OC | inactive: -6.08% |
| COc1ccccc1Cn1ccn(Cc2c(F)cccc2Cl)c(=O)c1=O | inactive: -70.7% |
| CN(C)c1oc(/C=C/c2ccc(F)cc2)nc1C#N | inactive: 75.2% |
| CC(=O)c1ccc(NC(=O)Nc2nnc(N3CCCC(C)C3)s2)cc1 (stereo not drawn) | inactive: -3.08% |
| CCN(c1ccccc1)c1nnc(NC(=O)Nc2cccc(Cl)c2C)s1 | inactive: 0.186% |
| Cc1c2cnn(CC(=O)NCc3ccc(F)cc3)c(=O)c2c(C)n1Cc1ccccc1F | inactive: -3.68% |
| Cc1nc2c(C(=O)NCCc3ccccc3)cnn2c(C)c1Cc1c(F)cccc1Cl | inactive: -13.2% |
| COc1ccc(Cl)cc1Nc1ncnc2c1c(-c1ccccc1)cn2-c1ccccc1 | inactive: -16.8% |
| CCOCCCNC(=O)c1cc2c(-c3ccc(OC)c(OC)c3)nn(C)c2s1 | inactive: -5.63% |
| COCCN1CCc2nc(SCC(=O)Nc3ccc(Br)cc3)[nH]c(=O)c2C1 | inactive: -4.14% |
| Cc1noc(/C=C/N(C)C)c1S(=O)(=O)N1CCCC(C(=O)Nc2ccc(F)cc2F)C1 (stereo not drawn) | inactive: -6.8% |
| NC(=O)C1(N2CCCCC2)CCN(C(=O)Nc2ccc(C(F)(F)F)cc2)CC1 | inactive: -10% |
| Cc1ccc(NCc2ccccc2-c2nnc(-c3ccccc3Cl)o2)c(C)c1 | inactive: -3.74% |
| CC(C)(Oc1ccc(Cl)cc1)C(=O)O | inactive: -1.17% |
| CN1CCCN=C1COC(=O)C(O)(c1ccccc1)C1CCCCC1 (stereo not drawn) | inactive: 4.38% |
| O=c1cc(-c2ccccc2)c2cc(Cl)c3c(c2o1)CN(Cc1ccccc1)CO3 | inactive: -12.8% |
| Cc1ccc2c(c1)c1c(c(=O)n(-c3ccccc3C)c(=O)n1CC(=O)NCc1ccccc1)n2C | inactive: -7.62% |
| COc1ccccc1NC(=O)Cn1c(=O)n(Cc2ccco2)c(=O)c2cccnc21 | inactive: -15.8% |
| Cc1ccc(OCCCn2c(CCNC(=O)C3CCCCC3)nc3ccccc32)c(C)c1 | inactive: 1.08% |
| COc1ccc(OC)c(NC(=O)CN2C(=O)c3ccccc3Sc3ccc(C(=O)N4CCCC4)cc32)c1 | inactive: 0.27% |
| COc1ccc(N(Cc2cccs2)C(=O)Nc2ccccc2)cc1 | inactive: -12.7% |
| COc1ccccc1-c1nnc(SCCOc2ccccc2C)o1 | inactive: -5.89% |
| CCc1cccc(CC)c1NS(=O)(=O)c1ccc2c(c1)CCN2C(=O)C1CC1 | inactive: -22.1% |
| CCOC(=O)c1cc(-c2ccc(OC)c(S(=O)(=O)Nc3ccc(OC)cc3OC)c2)on1 | inactive: 1.14% |

| Compound | activity change, negative = inhibition |
| --- | --- |
| Cc1ccc(CNC(=O)c2nnc(Cc3cccc(F)c3)o2)cc1 | inactive: -14% |
| COC(=O)c1sccc1S(=O)(=O)N1CCN(c2ccccc2OC)CC1 | inactive: -3.6% |
| COc1ccc(N2CC(C(=O)Nc3ccc(NC(C)=O)cc3)CC2=O)cc1 (stereo not drawn) | inactive: 2% |
| COCCCNC(=O)C(=O)NCC(c1ccc2c(c1)OCO2)N1CCOCC1 (stereo not drawn) | inactive: -7.43% |
| CCN1C(=O)c2ccccc2S(=O)c2ccc(C(=O)NCc3ccc(F)cc3)cc21 (stereo not drawn) | inactive: -21.7% |
| COc1ccc(NC(=O)C2=C(C)Nc3nc(CCCO)nn3C2c2ccc(O)cc2)cc1 (stereo not drawn) | inactive: -14.1% |
| Cc1ccc(C)c(S(=O)(=O)c2nnn3c2nc(N2CCOCC2)c2sccc23)c1 | inactive: -7.79% |
| CC(C)N(Cc1ccccc1)c1ncnc2c1nnn2C | inactive: -9.57% |
| CCOc1ccc(C(c2c(O)cc(C)n(CCOC)c2=O)N2CCN(c3ccccc3F)CC2)cc1 (stereo not drawn) | inactive: 1.27% |
| CCc1cccc(NC(=O)CCc2c(C)nc3c(c2C)c(=O)n(C)c(=O)n3C)c1 | inactive: -20.2% |
| Cc1ccc(CNC(=O)CCSCc2ccccc2F)cc1 | inactive: 0.365% |
| Cc1cc(C)c2oc(C(=O)Nc3sc4c(c3C(=O)NCc3ccco3)CCCC4)cc(=O)c2c1 | inactive: 0% |
| Cc1ccc(Nc2c(-c3cc(Br)ccc3F)nc3cc(C)ccn23)cc1 | inactive: -25.2% |
| Cc1ccc(NC(=O)c2cccc(N3CCCS3(=O)=O)c2)cc1 | inactive: 9.99% |
| COc1ccccc1NC(=O)Cn1c(=O)n(-c2ccc(C)cc2)c(=O)c2ccc(C(=O)NCc3ccco3)cc21 | inactive: 4.45% |
| CCOc1ccc(NC(=O)N2CCC(CN3CCc4ccccc4C3)CC2)cc1 | inactive: -24.4% |
| CCOCCCNC(=O)c1ccc(NC(=O)N2CCCCc3ccccc32)cc1 | inactive: -17.6% |
| COc1ccccc1N1CCN(c2ccc(=O)n(CC(=O)Nc3ccc(F)c(F)c3)n2)CC1 | inactive: -20.7% |
| Cc1c(NC(=O)c2ccc(Cl)cc2)cc(C(C)C)c(O)c1S(=O)(=O)c1ccc(Cl)cc1 | inactive: -1.23% |
| O=C(CCn1c(=O)c2cccn2c2ccc(F)cc21)NCCc1ccccc1 | inactive: -6.67% |
| Cc1ccc(C)c(Nc2cc(C(=O)NC3CCCCC3)c3ccccc3n2)c1 | inactive: 7.1% |
| CCC(=O)N1CCc2cc(CNC(=O)C(CC)c3ccccc3)ccc21 (stereo not drawn) | inactive: -14.5% |
| Cc1ccccc1Cn1c(=O)n(CCc2ccccc2)c(=O)c2c(C)c(C)sc21 | inactive: 4.75% |
| COc1cccc(OCCSc2nc3ccccc3n2CC(=O)N2CCCCC2)c1 | inactive: -26.3% |
| COc1cccc(-n2cc(C(=O)NCc3ccccc3OC)c3ccccc3c2=O)c1 | inactive: -10.8% |

| Compound | activity change, negative = inhibition |
| --- | --- |
| COc1ccc(-c2nc(CN3CCC(C(=O)NCCCOC(C)C)CC3)c(C)o2)cc1OC | inactive: -0.477% |
| CCc1cc2c(cc3c(=O)n(CC(=O)NCCc4ccc(OC)c(OC)c4)ncn32)s1 | inactive: -9.62% |
| COC(=O)c1cc(S(=O)(=O)NCC2CCN(Cc3cccc(F)c3)CC2)c[nH]1 | inactive: -14.8% |
| O=C(CCn1ccc2cc(S(=O)(=O)N3CCCC3)ccc21)NCc1cccc(F)c1 | inactive: -22.7% |
| COC(=O)CSc1nc(-c2ccc(F)cc2)cc(C(F)(F)F)n1 | inactive: -22.6% |
| COc1ccc(OC)c(C2N=C(N)Nc3nc4ccccc4n32)c1 (stereo not drawn) | inactive: -11.9% |
| COc1cc(OC)c(C2Nc3ccccc3-c3nnc(SCc4ccccc4)nc3O2)cc1OC (stereo not drawn) | inactive: 5.79% |
| COc1ccc(NC(=O)Cn2c(=O)n(Cc3nc(C)no3)c(=O)c3cc4c(cc32)OCO4)cc1OC | inactive: -14.9% |
| Cc1cccc(C)c1-n1ncc(C(=O)NCCN2CCOCC2)c1C1CCN(C(=O)OC(C)(C)C)CC1 | inactive: -23.3% |
| Cc1nc(-c2ccc(Cl)cc2)sc1CCNC(=O)c1ccc(C(F)(F)F)cc1 | inactive: -10.4% |
| Cc1ccc(C)c(NC(=O)CCn2nc(C)c3c(C)n(-c4ccccc4)nc3c2=O)c1 | inactive: -18% |
| COc1ccccc1C(=O)OCc1cc(=O)n2nc(C3CC3)sc2n1 | inactive: 20.7% |
| CCC1CCc2nc3sc(C(=O)Nc4ccc(F)c(Cl)c4)c(N)c3cc2C1 (stereo not drawn) | inactive: 2.01% |
| Cc1ccc(C)c(NC(=O)c2ccc3c(c2)CCN3S(C)(=O)=O)c1 | inactive: -1.44% |
| COc1ccccc1CNC(=O)CSc1ncc2c(n1)-c1ccc(Cl)cc1N(Cc1ccccc1)S2(=O)=O | inactive: -1.72% |
| COc1ccc(NC(=O)C(c2ccc(C)cc2)N(C)C(=O)Cc2cccs2)cc1 (stereo not drawn) | inactive: 2.21% |
| Cc1c(Cl)cccc1NC(=O)C(C)n1c(=O)cc(-c2ccccc2)c2c(C)nn(C)c21 (stereo not drawn) | inactive: 8.23% |
| O=C(Cn1c(-c2cccs2)cc2cc(Cl)ccc21)N1CCN(c2ccccc2)CC1 | inactive: -13.5% |
| O=C(Cn1c(=O)c2cc(Cl)ccc2n2nncc12)Nc1ccccc1 | inactive: -7.99% |
| O=C(CC(c1cccs1)N1Cc2ccccc2C1=O)Nc1ccc(F)c(Cl)c1 (stereo not drawn) | inactive: -21.1% |
| C=CCC(CC=C)(CNC(=O)C(=O)Nc1cccc(C(F)(F)F)c1)c1ccccc1 | inactive: -2.54% |
| Cc1cccc(-n2c(=O)c3c(c4cc(C)ccc4n3C)n(CC(=O)NCCC3=CCCCC3)c2=O)c1 | inactive: -11.7% |
| CCC1CN(C(=O)N2CCC(C(=O)NCCN(CC)CC)CC2)c2ccccc2O1 (stereo not drawn) | inactive: -1.07% |
